# Test results taken from the supplement of paper PMC10441789.
# This is one part of the list. Antibody binding of pooled human sera (four to six donors per pool; dilution not stated) to peptides of the Trypanosoma cruzi antigen TSSA on microarrays. Quantile-normalised fluorescence in arbitrary units, mean of duplicate arrays; higher = more binding. No active / inactive call. The uninfected pools are read here as the healthy donors of the same country. The strongest signals lie near the top of the scale (about 60,000).
# Key:
# Assay in all cases: antibody binding signal (normalised fluorescence) (arbitrary fluorescence units); higher = stronger serum antibody binding to peptide
# [1] = tested on: pooled sera of chronic Chagas disease patients, Argentina
# Protocol: (§1)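 Microarray of 15-residue peptides over residues 30-55 of Trypanosoma cruzi TSSAII, each with 1 to 10 substitutions at naturally variable positions, probed with one serum pool per country.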
# [2] = tested on: pooled sera of chronic Chagas disease patients, Bolivia
# Protocol: as §1
# [3] = tested on: pooled sera of chronic Chagas disease patients, Brazil
# Protocol: as §1
# [4] = tested on: pooled sera of chronic Chagas disease patients, Colombia
# Protocol: as §1
# [5] = tested on: pooled sera of chronic Chagas disease patients, Mexico
# Protocol: as §1
# [6] = tested on: pooled sera of chronic Chagas disease patients, USA
# Protocol: as §1
# [7] = tested on: pooled sera of uninfected people, Argentina
# Protocol: as §1
# [8] = tested on: pooled sera of uninfected people, Bolivia
# Protocol: as §1
# [9] = tested on: pooled sera of uninfected people, Brazil
# Protocol: as §1
# [10] = tested on: pooled sera of uninfected people, Colombia
# Protocol: as §1
# [11] = tested on: pooled sera of uninfected people, Mexico
# Protocol: as §1
# [12] = tested on: pooled sera of uninfected people, USA
# Protocol: as §1
Sequence,antibody binding signal [1],antibody binding signal [2],antibody binding signal [3],antibody binding signal [4],antibody binding signal [5],antibody binding signal [6],antibody binding signal [7],antibody binding signal [8],antibody binding signal [9],antibody binding signal [10],antibody binding signal [11],antibody binding signal [12]
KPAAGGTPSPPGASS,202,203,248,1640,278,190,149,170,280,240,94.2,165
PPSGKDNKAAAGETP,583,688,2700,618,3910,3550,445,833,163,308,186,220
TSSTPPSGTDKKTAA,33700,4280,34000,5310,40700,5840,1280,226,159,157,596,322
TPPSGKENKAAAGEA,24600,10300,2870,461,3410,3980,2700,1820,374,1410,223,269
GTEKKTATGEAPSQS,14100,20900,15700,819,1140,20800,211,571,164,102,115,111
EKKTAAGGAPSPPGA,354,679,502,7680,767,1150,207,781,137,323,180,671
GKDKKTAAGGTPSQP,377,257,201,3730,434,1580,229,132,288,181,383,112
KENKTATGETPSPSG,528,383,1640,692,263,7380,188,261,156,175,277,2740
DNKTATGETPSQPGA,1820,4140,32400,297,173,6170,150,720,322,235,262,259
GTDKKTAAGEAPSQS,606,7510,4100,1940,1270,7910,182,418,172,629,192,108
KAATGGAPSPSGASS,621,247,406,359,1870,539,364,140,101,99.5,91.2,233
TPPSGTDKKPAAGGT,38100,9710,45400,14400,54800,3470,803,355,2140,420,5340,508
